# PubChem BioAssay AID1645882 (National Center for Advancing Translational Sciences (NCATS), 2021)
# Out of some 16,000 compounds screened, about 120 (0.75%) were called active. Not shown: some 4% with an inconclusive outcome. Calls follow the shape of the dose curve; as a rule, active = well fitted inhibition curve with a large enough effect; inconclusive = small, poorly fitted or top-dose-only effect; inactive = no such curve, though single readings can be large or run the other way. The list shows a part of the results.
# Target: Rap guanine nucleotide exchange factor 3 (Homo sapiens) (UniProt O95398)
# Chain of UniProt O95398 (O95398 whole entry, looked up): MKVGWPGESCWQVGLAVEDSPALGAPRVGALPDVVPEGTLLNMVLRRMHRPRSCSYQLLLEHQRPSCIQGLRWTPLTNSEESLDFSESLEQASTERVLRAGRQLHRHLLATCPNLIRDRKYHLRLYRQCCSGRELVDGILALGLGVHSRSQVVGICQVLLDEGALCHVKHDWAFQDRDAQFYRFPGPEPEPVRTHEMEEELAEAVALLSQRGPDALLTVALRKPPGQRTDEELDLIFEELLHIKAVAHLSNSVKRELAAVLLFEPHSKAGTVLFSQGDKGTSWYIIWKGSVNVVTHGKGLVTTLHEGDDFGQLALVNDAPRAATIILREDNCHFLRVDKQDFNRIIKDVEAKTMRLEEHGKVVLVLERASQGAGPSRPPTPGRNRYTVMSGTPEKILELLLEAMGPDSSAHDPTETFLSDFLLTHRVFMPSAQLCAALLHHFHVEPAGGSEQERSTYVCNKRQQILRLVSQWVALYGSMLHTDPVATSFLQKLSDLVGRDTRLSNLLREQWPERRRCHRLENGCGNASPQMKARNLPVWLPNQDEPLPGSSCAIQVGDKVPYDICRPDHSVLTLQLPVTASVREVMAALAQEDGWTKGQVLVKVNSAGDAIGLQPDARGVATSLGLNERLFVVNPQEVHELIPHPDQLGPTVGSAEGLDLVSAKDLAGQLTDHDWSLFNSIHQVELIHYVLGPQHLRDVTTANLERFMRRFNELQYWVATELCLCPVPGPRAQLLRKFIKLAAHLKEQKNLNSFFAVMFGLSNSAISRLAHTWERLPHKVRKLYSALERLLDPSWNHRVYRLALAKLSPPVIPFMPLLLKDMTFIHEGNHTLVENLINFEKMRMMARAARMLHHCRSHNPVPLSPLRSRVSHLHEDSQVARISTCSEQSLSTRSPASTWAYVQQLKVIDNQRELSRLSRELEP
# Test: Validation qHTS for antagonist of cAMP-regulated guanine nucleotide exchange factor 3 (EPAC1);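 also: plate controls were DMSO for no effect and ATA control for full effect; nearly all actives have a fitted effect of over 75% in size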
# Settings: EPAC1 Rap1B-BODIPY-GDP exchange, fluorescence; series mostly up to 150 µM; activity change, negative = inhibition: at the top concentration
# Summary of the method: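 EPAC1 (100 nM) mixed with 250 nM RAP1B-BODIPY-GDP and 50 uM GDP; compounds in concentration series, 5 min at room temperature. Fluorescence (ex 480/em 540 nm) read every 5 min for 30 min; normalized to ATA control and DMSO.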
row,SMILES,"activity change, negative = inhibition"
1,CC1CC[C@]2(NC1)OC1CC3C4CC=C5CC(O)CC[C@@]5(C)C4CC[C@]3(C)C1C2C (some centres undefined),inactive: 5.69%
2,c1ccc(CCCCN2CCC(c3ccccc3)CC2)cc1,inactive
3,Cc1cc(O)ccc1Cl,inactive
4,N[C@@H](Cn1ccc(=O)[nH]c1=O)C(=O)O,inactive: 14.8% [at 75.8 µM]
5,CCCN(CCC)c1c([N+](=O)[O-])cc(C(F)(F)F)cc1[N+](=O)[O-],inactive: 4.81%
6,C=CCN1CCC2(C)c3cc(O)ccc3C[C@H]1[C@H]2C,inactive: 6.25%
7,C=C(C)[C@H]1CN[C@H](C(=O)O)[C@H]1CC(=O)O,inactive
8,c1cnc(N2CC[C@@]3(CCCNC3)C2)nc1,inactive: 15.1%
9,NC1CC1c1ccccc1 (centres undefined),inactive: 2.39% [at 75.8 µM]
10,CCC(C)(S(=O)(=O)CC)S(=O)(=O)CC,inactive: 8.45%
11,O=c1cccc2n1CC1CC2CN2CCCC[C@H]12 (some centres undefined),inactive: 17.6%
12,CC(C)N(C(=O)CCl)c1ccccc1,inactive: 21.4%
13,COc1ccc2c(c1)c(CCN1CCOCC1)c(C)n2C(=O)c1cccc(Cl)c1Cl,inactive: 11.8% [at 75.8 µM]
14,C=CCN1C[C@@H](C)N([C@H](c2ccc(C(=O)N(CC)CC)cc2)c2cccc(OC)c2)C[C@@H]1C,inactive: 10.8% [at 75.8 µM]
15,Oc1ccc2c3c1O[C@H]1c4oc5ccccc5c4C[C@@]4(O)C(C2)N(CC2CC2)CC[C@]314,inactive: 15.3%
16,Nc1ncn[nH]1,inactive: -2.02%
17,COc1ccc(CN2CCNCC2)c(OC)c1OC,inactive: 20.8% [at 75.8 µM]
18,Cc1c(C(=O)c2ccc3ccccc3c2)c2cccc3c2n1[C@H](CN1CCOCC1)CO3,inactive: 1.31%
19,C=CCC1([C@@H](C)CCC)C(=O)NC(=O)NC1=O,inactive: 19.2% [at 320 µM]
20,CC(C)NC[C@H](O)c1ccc(N)c(C#N)c1,inactive: 3.15%
21,CCCN(CCC)CCc1c[nH]c2ccc(C(N)=O)cc12,inactive
22,CCN1C[C@]2(COC(=O)c3ccccc3N3C(=O)CC(C)C3=O)CC[C@H](OC)[C@@]34C5C[C@@H]6[C@@H](OC)C[C@@](O)(C5[C@H]6OC)[C@](O)([C@@H](OC)C23)[C@@H]14 (some centres undefined),inactive: 13.7%

row,SMILES,"activity change, negative = inhibition"
1,CC(C)(N)Cc1ccc(Cl)cc1,inactive: 19.8%
2,CN(C)C1C(=O)C(C(N)=O)=C(O)[C@@]2(O)C(=O)C3=C(O)c4c(O)ccc(Cl)c4[C@](C)(O)C3CC12 (some centres undefined),inactive: -10.7%
3,c1ccc2c(N3CCNCC3)cccc2c1,inactive
4,CCCCNCC(O)c1ccc(O)cc1 (centres undefined),inactive: 6.82%
5,CN(C)CCO,inactive: 25.6%
6,COCCOCCO,inactive: 22.2% [at 320 µM]
7,c1cc(N2CCCC3(CCNCC3)C2)ccn1,inactive: 20.3%
8,COC1=CC2C3Cc4ccc(OC)c(O)c4[C@]2(CCN3C)CC1=O (some centres undefined),inactive: -8.96%
9,CC1O[C@@H](OC2CC(O)[C@@]3(CO)C4C(O)C[C@@]5(C)C(C6=CC(=O)OC6)CC[C@]5(O)C4CC[C@]3(O)C2)C(O)C(O)C1O (some centres undefined),inactive: 7.17%
10,CCCCC[C@@H](/C=C/C=C\CCCCCCCC(=O)O)OO,inactive: 13.2% [at 1.57 µM]
11,CN1Cc2ccccc2[C@@H]2c3cccc4[nH]cc(c34)C[C@H]21,inactive
12,C=C[C@H]1CN2CC[C@H]1C[C@H]2[C@H](OC(=O)OCC)c1ccnc2ccc(OC)cc12,inactive: 12.7%
13,O=C(N[C@H]1CN2CCC1CC2)c1ccc(Cl)cc1,inactive: -5.7% [at 75.8 µM]
14,O=[N+]([O-])c1ccc2nc(N3CCNCC3)ccc2c1,inactive
15,N[C@@]1(C(=O)O)CC[C@H](C(=O)O)C1,inactive
16,C[C@H]1C[C@H](C)C(=O)[C@@H]([C@H](O)CC2CC(=O)NC(=O)C2)C1,inactive: -7.98%
17,C[N+]1=Cc2cc3c(cc2CC1)OCO3,inactive: 10.5%
18,C[C@]12C=CC(=O)C=C1CC[C@@H]1[C@@H]2CC[C@@]2(C)[C@H]1CC[C@]2(C)O,inactive: 30.4%
19,CN(C)C1C(=O)C(C(N)=O)=C(O)[C@@]2(O)C(=O)C3=C(O)c4c(O)cccc4[C@@](C)(O)C3C[C@@H]12 (some centres undefined),inactive: -1.22%
20,c1csc(CN2CCC3(CCNCC3)CC2)n1,inactive: -1.81%
21,CN1CCC2=C[C@@H](O)[C@@H]3OC(=O)c4cc5c(cc4C3C21)OCO5 (some centres undefined),inactive: -4.19%
22,C[C@]12CC[C@H]3[C@@H](CCC4=CC(=O)CC[C@@H]43)[C@@H]1CC[C@@H]2O,inactive
